Measurements taken from article PMC9574860, “Chemical Toolkit for PARK7: Potent, Selective, and High-Throughput” (Journal of Medicinal Chemistry, 2022).
The whole screen tested about 7,900 compounds, of which about 400 (5.1%) showed an effect of 50% or more. The list shows a part of the results.

molecular target: Parkinson's disease protein 7 (PARK7/DJ1) (human, UniProt Q99497); experiment: primary screen, percent inhibition; read as competition with a fluorescent probe by fluorescence polarization; higher = more effect of the substance; conditions: 100 µM
Description: The screen was conducted using the conditions as described above in 1536-well plates (Corning 3724) with a reaction volume of 8 μL per well. The compound library containing 7887 covalent fragments was purchased at Enamine Ltd. and received as 100 mM DMSO stocks in 384 well LDV Echo plates (Labcyte LP-0200). Stock solutions of 0.26 μM PARK7 and 80 nM JYQ-107 were prepared. Using a Labcyte Echo550 acoustic dispenser, 8 nL of the DMSO stock solution of the library compounds was transferred from the source plates into the empty 1536-well screening plates to obtain a 100 μM final compound concentration. Next, PARK7 (6 μL, final concentration 0.2 μM) was dispensed using a Biotek MultiflowFX liquid dispenser and incubated for 2 h, followed by dispensing the probe JYQ-107 (2 μL, final concentration 20 nM). After 2 h incubation, the FP signal was recorded on a BMG Labtech PHERAstar plate reader (λex/em 480/520 nm). The relative loss of FP signal compared with reference controls was used to calculate the remaining enzyme activity.

Chain of Parkinson's disease protein 7 (PARK7/DJ1) (Q99497 whole entry, looked up, the tested form may be a part): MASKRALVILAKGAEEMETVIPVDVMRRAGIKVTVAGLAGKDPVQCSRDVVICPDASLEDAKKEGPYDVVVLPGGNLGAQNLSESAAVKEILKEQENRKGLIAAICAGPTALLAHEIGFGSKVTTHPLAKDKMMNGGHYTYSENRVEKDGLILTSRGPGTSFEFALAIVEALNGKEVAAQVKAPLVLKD

Compound | Inhibition % [%]
N#Cc1ncn(Cc2cccc(F)c2)n1 | -0.226
CC1(C)COC(=O)C1NC(=O)Nc1ccc(F)cn1 (centres unmarked) | 8.35
CC(C)(C)c1ccnc(S)n1 | 41.3
CCOc1ccc(S(=O)(=O)n2ccnc2C(C)C)cc1C | 2.99
O=C(CC1C=CS(=O)(=O)C1)NCc1cccc(F)c1 (centres unmarked) | 6.58
C=CC(=O)N1CCN(Cc2ncc(-c3ccccc3)o2)CC1 | 12.5
N#Cc1ncn(CC(=O)N2CCc3ccccc32)n1 | 2.7
Cc1noc(C)c1CCn1ccnc1C#N | 0.0226
Cc1ccc(S(=O)(=O)n2ccc(C(=O)O)c2)cc1 | 11.3
C=CC(=O)NC1CCCC(CC)C1 (centres unmarked) | 6.12
CC1(C)OB(c2cc3occc3cc2F)OC1(C)C | -1.65
CC1(C)OB(c2ccc(C3(CO)CC3)cc2)OC1(C)C | 2.39
Cc1csc(NC(=O)CCl)n1 | -1.74
CN1CC(=O)OB(c2ccc(C(F)(F)F)cn2)OC(=O)C1 | 3.49
O=C(CCCl)Nc1ccnn1C1CCCC1 | 15.8
Cc1nc(C#N)c(NCCc2ccccc2)o1 | 6.1
C=CC(=O)NC1CCOC(CC)C1 (centres unmarked) | 10.5
CC(C)(C)c1n[nH]cc1C=C(C#N)C(=O)N1CCCC1 | 6.17
Cn1cc(S(=O)(=O)Oc2cnc3ccccc3c2)cn1 | 6.55
O=[N+]([O-])c1cccc(S(=O)(=O)F)c1 | 99.2
C=CC(=O)N(C)CC1CCCc2sc(C)nc21 (centres unmarked) | 7.4
N#Cc1ncn(CC(=O)N2CCCC3CCCCC32)n1 (centres unmarked) | -1.06
CCCc1cccc(B2OC(C)(C)C(C)(C)O2)c1 | 5.49
O=C(N1CCc2sccc2C1)n1ccnc1 | 15.4
C=CC(=O)NC1CCC(C(=O)NC)CC1 (centres unmarked) | 10.1
C1CN(CC2CO2)CCS1 (centres unmarked) | 6.78
C=CC(=O)N1CC2CCC2(N)C1.O=C(O)C(F)(F)F (centres unmarked) | 4.78

Compound | Inhibition % [%]
Cc1cc(S(=O)(=O)n2cccn2)ccc1F | 11.6
CCSc1nccnc1C#N | 2.19
O=C(c1ccccc1Cl)N1CCCCC1C1OCCO1 (centres unmarked) | 5.3
O=C(O)c1ccc(CS)c(F)c1 | 82.7
Cc1[nH]c(C#N)cc1C(=O)N[C@@H]1C[C@@H](O)C12CCOCC2 | 4.76
CC1(C)OB(C2=CCSC2)OC1(C)C | 6.89
Cc1ccc2c(c1)CCCN2C(=O)CCN1CCSC1=O | 15
CN1C=CC(=C(C#N)C(=O)CCl)C=C1 | 9.45
CC1(C)Cc2cc(C=C(C#N)C(N)=O)ccc2O1 | 12.2
C=CC(=O)N1CCC2(CCc3ccccc3O2)CC1 | 10.1
C=CC(=O)Nc1cccc(Cl)c1 | 1.86
C=CC(=O)NCCN1CCCC(C)(C)C1 | 8.42
COc1ccc(C=C(C#N)C(N)=S)cc1O | 14.8
O=C(CCl)Nc1ccccc1Sc1ccccc1 | 48.7
C=CC(=O)NCc1c(C2CC2)cnn1C | 1.86
Cc1ccc(F)c(OS(=O)(=O)c2cn[nH]c2C)c1 | 11.7
Cc1ccccc1OCCn1cnc(C#N)n1 | 4.98
Cc1cccc(NC2C=CS(=O)(=O)C2)c1 (centres unmarked) | 7.19
CC1(C)OB(C2CC23CCOCC3)OC1(C)C (centres unmarked) | 2.49
O=C1OCCC1Sc1ncnc2ccsc12 (centres unmarked) | 3.13
O=C(CCl)NCC1(c2ccccc2)CCC1 | 15.1
CCCN(c1ccc(C#N)nc1)C1CC1 | 4.72
CCNC(=O)Oc1cccc(O)c1 | 32.3
O=C(Nc1ccc(Cl)cc1)N1CCC(C2OCCO2)CC1 | 14
Cc1ccc(Oc2ccc(Cl)cc2NC(=O)CCl)cc1 | 2.17
O=C(CCl)Nc1c(F)cccc1F | 26.1
N#Cc1nc(N2CCC(NC(N)=O)CC2)ccc1Cl | 4.8

Compound | Inhibition % [%]
Cn1cc(C(=O)CCl)cc1C(N)=O | 0.329
O=C(C=Cc1nc2ccccc2o1)N1CCC1 | 4.95
CN(C(=O)c1ccc2c(=O)n(C)c(S)nc2c1)C1CC1 | 5.16
Cc1cc(B(O)O)ccc1OCc1ccc(Cl)cc1 | 0.486
CCN(CCC#N)S(=O)(=O)C=Cc1ccccc1 | 1.49
Cc1ccnc(S)n1.Cl | 5.09
N#Cc1cccc(SCCN2CCOCC2)n1 | 2.57
C=CC(=O)NC1CCOc2c(OC)cccc21 (centres unmarked) | 11
C=CC(=O)N1CCC(Oc2ccc(C3CC3)cn2)C1 (centres unmarked) | 11.9
CCc1cc(S)nc(S)n1 | -0.469
C=CC(=O)Nc1cc(C2CCCO2)nn1C (centres unmarked) | 13.1
N#Cc1nccnc1NCCc1ccc[nH]1 | 5.64
C=CC(=O)N1CCCC1C (centres unmarked) | 7.71
O=c1[nH]c2ccccc2n1CCCCl | 4.46
CC(NC(=O)c1cccnc1S)C(O)c1ccc(F)cc1 (centres unmarked) | 2.15
COCCNC(=O)C(C#N)=Cc1ccc(O)cc1 | -0.455
N#CC(=Cc1ccccc1OCC(F)(F)F)C(N)=O | 22.7
N#Cc1c(N)nc2n1CCC2 | 33.2
CC1OC(C)(C)N(C(=O)OC(C)(C)C)C1CB1OC(C)(C)C(C)(C)O1 (centres unmarked) | 9.69
CN(C)c1cccnc1C#N | 2.64
CC(OCC1CO1)c1ccc(Cl)cc1 (centres unmarked) | 5.47
C=CC(=O)NCC1(c2c(F)cccc2F)CCC1 | 3.26
O=S(=O)(F)c1cccc(S(=O)(=O)Nc2ncccn2)c1 | 16.8
CN(Cc1ccc(N(C)C)cc1)C(=O)CCl.Cl | 71.3
Cc1cccc(C)c1NC(=O)CNC(=O)CCl | 3.45
C=CC(=O)NCc1c2c(nn1C)CCCC2 | 4.79
